The record followed here is PMC4336329 (PLoS ONE, 2015).

Out of some 310,000 compounds screened, about 2,200 (0.71%) showed an effect of 50% or more. Effects have a minus sign here. Some of the results follow.

The test deals with human ether-à-go-go-related gene (hERG) potassium channel (human, UniProt Q12809). As to the kind of experiment: primary screen, population patch clamp on CHO cells stably expressing hERG.
Sequence of human ether-à-go-go-related gene (hERG) potassium channel (Q12809 whole entry, looked up): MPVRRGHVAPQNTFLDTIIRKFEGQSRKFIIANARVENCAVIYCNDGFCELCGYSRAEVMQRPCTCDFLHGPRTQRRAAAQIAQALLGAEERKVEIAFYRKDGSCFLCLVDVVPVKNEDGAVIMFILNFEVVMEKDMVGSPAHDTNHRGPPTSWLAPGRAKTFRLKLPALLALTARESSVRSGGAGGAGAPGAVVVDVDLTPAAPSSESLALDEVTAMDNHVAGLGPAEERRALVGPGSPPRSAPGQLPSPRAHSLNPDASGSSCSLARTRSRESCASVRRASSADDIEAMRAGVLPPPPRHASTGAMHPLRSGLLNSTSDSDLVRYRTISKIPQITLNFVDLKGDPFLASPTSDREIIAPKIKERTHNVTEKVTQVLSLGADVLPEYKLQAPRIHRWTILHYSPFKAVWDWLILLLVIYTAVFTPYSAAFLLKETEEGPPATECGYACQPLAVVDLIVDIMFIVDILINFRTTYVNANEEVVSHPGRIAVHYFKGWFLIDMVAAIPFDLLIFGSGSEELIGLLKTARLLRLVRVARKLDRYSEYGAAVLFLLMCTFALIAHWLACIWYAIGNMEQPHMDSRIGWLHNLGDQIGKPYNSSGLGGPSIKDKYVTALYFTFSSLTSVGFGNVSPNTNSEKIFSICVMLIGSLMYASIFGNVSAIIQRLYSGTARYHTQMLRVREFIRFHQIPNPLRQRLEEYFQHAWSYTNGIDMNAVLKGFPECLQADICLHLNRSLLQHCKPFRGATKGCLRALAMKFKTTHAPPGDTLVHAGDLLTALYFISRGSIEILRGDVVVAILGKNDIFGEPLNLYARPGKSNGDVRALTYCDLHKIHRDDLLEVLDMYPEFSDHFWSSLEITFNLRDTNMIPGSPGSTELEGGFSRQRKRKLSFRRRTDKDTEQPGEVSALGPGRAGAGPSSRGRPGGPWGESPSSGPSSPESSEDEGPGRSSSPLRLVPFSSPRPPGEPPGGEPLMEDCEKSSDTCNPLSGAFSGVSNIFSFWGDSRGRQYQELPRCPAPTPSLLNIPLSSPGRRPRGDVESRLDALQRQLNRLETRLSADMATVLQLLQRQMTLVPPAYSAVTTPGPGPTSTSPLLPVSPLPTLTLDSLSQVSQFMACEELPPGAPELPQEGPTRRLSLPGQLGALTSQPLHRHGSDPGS
For `O=c1c2ccccc2cnn1CCOc1cccc(Br)c1`, the “hERG current change (%, negative = inhibition) at 1uM” value turned out to be 13.5%.

As to `Cc1cc([N+](=O)[O-])ccc1NCc1cccc([N+](=O)[O-])c1`, the “hERG current change (%, negative = inhibition) at 1uM” value is -56.6%.

As to `COc1cc(C(=O)NCC(=O)N/N=C(C)\C=C\c2ccccc2)cc(OC)c1OC`, the “hERG current change (%, negative = inhibition) at 1uM” value was found to be 17.5%.

As to `Cc1ccn2cc(-c3cccc([N+](=O)[O-])c3)nc2c1`, the “hERG current change (%, negative = inhibition) at 1uM” value is on record as 4.2%.

As for `Cc1ccc(C(=O)NCCNc2ccc([N+](=O)[O-])cc2C(F)(F)F)cc1`, the “hERG current change (%, negative = inhibition) at 1uM” value was 7.09%.

Take `CC1CN(C(=O)CCNC(=O)c2ccc(Cl)cc2)CC(C)O1` (stereo not drawn): the “hERG current change (%, negative = inhibition) at 1uM” value came to 10.4%.

In the case of `O=C(O)c1ccc(O)c(N2C(=O)Nc3ccccc3N2O)c1`, the “hERG current change (%, negative = inhibition) at 1uM” value was found to be 11.3%.

Regarding `CC1CCCN(C(=O)CNS(=O)(=O)c2cccs2)C1` (stereo not drawn), the “hERG current change (%, negative = inhibition) at 1uM” value is 7.97%.

In the case of `Cc1nnc2sc(-c3cccc4ccccc34)nn12`, the “hERG current change (%, negative = inhibition) at 1uM” value was -4.8%.

For `O=C(NCC(O)CN1CCOCC1)c1ccc([N+](=O)[O-])cc1` (stereo not drawn), the “hERG current change (%, negative = inhibition) at 1uM” value worked out at 12.7%.

Turning to `Cc1ccc(-c2cc(=O)[nH]c3ccccc23)cc1`, the “hERG current change (%, negative = inhibition) at 1uM” value was 3.95%.

As to `CCN(CC(=O)O)S(=O)(=O)c1cc(Cl)ccc1Cl`, the “hERG current change (%, negative = inhibition) at 1uM” value came out at 9.87%.

In the case of `O=C(CCN1CCN(CCO)CC1)Nc1ccccc1.O=C(O)C(=O)O`, the “hERG current change (%, negative = inhibition) at 1uM” value is listed as 14.3%.

In the case of `O=S1(=O)N=C(Nc2nncs2)c2ccccc21`, the “hERG current change (%, negative = inhibition) at 1uM” value is 18%.

Turning to `CN(C)CCN(C)Cc1c2ccccc2c(CN(C)CCN(C)C)c2ccccc12`, the “hERG current change (%, negative = inhibition) at 1uM” value amounted to 6.77%.

As to `O=C(NC(Cc1ccccc1)C(=O)O)/C(=C/c1ccccc1)NC(=O)c1cccc(Br)c1` (stereo not drawn), the “hERG current change (%, negative = inhibition) at 1uM” value stood at 7.54%.

`CC(C)CNC(=O)c1ccccc1SCC(=O)NC12CC3CC(CC(C3)C1)C2`: the “hERG current change (%, negative = inhibition) at 1uM” value was found to be 3.63%.

With `CCN(C(=O)COC(=O)c1cc(-c2ccccc2)nc2c1c(C)nn2-c1ccc(C)cc1)C1CCS(=O)(=O)C1` (stereo not drawn), the “hERG current change (%, negative = inhibition) at 1uM” value turned out to be 2.31%.

Consider `CSc1nc2ccc(NC(=O)c3ccc(F)c(F)c3)cc2s1`, for which the “hERG current change (%, negative = inhibition) at 1uM” value stood at 13.2%.

For `O=C1c2cccnc2C(O)N1C1CCCCC1` (stereo not drawn), the “hERG current change (%, negative = inhibition) at 1uM” value was 8.36%.

For the compound `FC(F)(F)c1cccc(Cn2nnnc2-c2cccc(C(F)(F)F)c2)c1`, the “hERG current change (%, negative = inhibition) at 1uM” value is -0.439%.

In the case of `CCN(CC)CCNC(=O)c1c(C)n(-c2ccccc2)c2cc(Br)c(OC)cc12`, the “hERG current change (%, negative = inhibition) at 1uM” value was -6.93%.

As for `COC(=O)C(Cc1ccccc1)NC(=O)c1cccc(S(=O)(=O)N(C)C)c1` (stereo not drawn), the “hERG current change (%, negative = inhibition) at 1uM” value worked out at 4.5%.

Regarding `Cc1cc2nc(N3CCN(C(=O)c4ccco4)CC3)sc2cc1C`, the “hERG current change (%, negative = inhibition) at 1uM” value is reported as 20.2%.

For `CN(C(=O)CSc1ncnc2sccc12)c1c(N)n(Cc2ccccc2)c(=O)[nH]c1=O`, the “hERG current change (%, negative = inhibition) at 1uM” value is 11.2%.

Regarding `COc1ccc(OCC(=O)NNC(=O)c2cccc(O)c2)cc1`, the “hERG current change (%, negative = inhibition) at 1uM” value amounted to 13%.

Turning to `O=C(CSc1nccc(=O)[nH]1)Nc1cccc(S(=O)(=O)N2CCOCC2)c1`, the “hERG current change (%, negative = inhibition) at 1uM” value was determined as 11.4%.

With `Cc1cc(NC(=O)CSc2nnc(-c3cccnc3)n2C)no1`, the “hERG current change (%, negative = inhibition) at 1uM” value worked out at 14.4%.

In the case of `Cc1nn(-c2ccccc2)c2ncc(C(=O)c3cc(Cl)ccc3O)cc12`, the “hERG current change (%, negative = inhibition) at 1uM” value is on record as 2.27%.

As to `CC1CN(c2ccccc2)NC1=O` (stereo not drawn), the “hERG current change (%, negative = inhibition) at 1uM” value is 3.87%.

On to `O=C(CCN1C(=O)C2CC=C(Cl)CC2C1=O)NCc1ccccc1` (stereo not drawn), for which the “hERG current change (%, negative = inhibition) at 1uM” value worked out at 4.8%.

In the case of `COc1ccc2nc(NC(=O)CSc3nc(SC)ns3)sc2c1`, the “hERG current change (%, negative = inhibition) at 1uM” value amounted to 6.52%.

Take `COc1cccc(C2C(C#N)=C(N)N(N(C)C)C3=C2C(=O)CC(C)(C)C3)c1` (stereo not drawn): the “hERG current change (%, negative = inhibition) at 1uM” value turned out to be 16.6%.

`COc1cccc(-c2nc(CS(=O)(=O)CC(=O)NCCc3ccc(OC)cc3OC)c(C)o2)c1`: the “hERG current change (%, negative = inhibition) at 1uM” value stood at 5.41%.

For `Cc1cc(C(=O)NCc2ccc(S(N)(=O)=O)cc2)ccc1[N+](=O)[O-]`, the “hERG current change (%, negative = inhibition) at 1uM” value is given as 14.3%.

As to `COc1ccc(NC(=O)CN(C)C(=O)c2cccc(S(=O)(=O)Nc3ccc(F)cc3)c2)cc1`, the “hERG current change (%, negative = inhibition) at 1uM” value turned out to be 3.6%.

For `Cc1cc(C)cc(N2C(=O)/C(=C\c3ccc(N4CCN(C)CC4)o3)C(=O)NC2=S)c1`, the “hERG current change (%, negative = inhibition) at 1uM” value amounted to 6.68%.

Take `COCCCN1CN(S(=O)(=O)c2ccc(Cl)cc2)c2nc3ccccc3nc21`: the “hERG current change (%, negative = inhibition) at 1uM” value was 4.5%.

In the case of `CN1CCN(C(=O)COc2ccc(-c3nc4ccccc4s3)cc2)CC1`, the “hERG current change (%, negative = inhibition) at 1uM” value worked out at 8.33%.

As for `Cc1cc(NC(=O)CSc2ccc3c(c2)OCCO3)no1`, the “hERG current change (%, negative = inhibition) at 1uM” value is on record as 0.276%.

For `COc1ccc(NC(=O)CS(=O)(=O)c2cn(CC(=O)N3CCOCC3)c3ccccc23)cc1`, the “hERG current change (%, negative = inhibition) at 1uM” value worked out at 9.07%.

With `CCN(CC)C(=O)c1cccc(NC(=O)c2cc(C3CC3)nc3c2cnn3C(C)C)c1`, the “hERG current change (%, negative = inhibition) at 1uM” value was found to be 5.55%.

Take `CCOc1ccccc1NC(=O)c1cnc(NS(=O)(=O)c2ccccc2)nc1`: the “hERG current change (%, negative = inhibition) at 1uM” value is on record as 17.4%.

As for `O=C(N/N=C/c1ccoc1)c1cc(Br)ccc1O`, the “hERG current change (%, negative = inhibition) at 1uM” value is on record as 7.58%.

Consider `COc1ccc(CCNC(=O)c2ccccc2SC)cc1`, for which the “hERG current change (%, negative = inhibition) at 1uM” value is reported as 10.1%.

`Cc1ccccc1NC(=S)NNC(=O)c1ccoc1C`: the “hERG current change (%, negative = inhibition) at 1uM” value came out at 5%.

In the case of `COc1ccccc1CNCC(c1ccccc1)c1ccccc1`, the “hERG current change (%, negative = inhibition) at 1uM” value is -2.66%.

For the compound `O=S(=O)(Nc1cccc(-n2cnnn2)c1)c1ccccc1F`, the “hERG current change (%, negative = inhibition) at 1uM” value is 15.9%.

Consider `C=CCN(Cc1nc(-c2ccccc2)no1)C(=O)c1ccoc1C`, for which the “hERG current change (%, negative = inhibition) at 1uM” value turned out to be 9.08%.

Consider `CC(C)(C)CC(=O)NC(=S)N1CCCCCC1`, for which the “hERG current change (%, negative = inhibition) at 1uM” value was 13.1%.

For `Cc1ccc(OC(C)C(=O)O)cc1C` (stereo not drawn), the “hERG current change (%, negative = inhibition) at 1uM” value amounted to 0.563%.

In the case of `COc1ccc2cc(CCNC(=O)c3cccc([N+](=O)[O-])c3)c(=O)[nH]c2c1`, the “hERG current change (%, negative = inhibition) at 1uM” value is -14.2%.

`Cc1ccc(Cn2ncc3c(N4CCN(CC#N)CC4)ncnc32)cc1`: the “hERG current change (%, negative = inhibition) at 1uM” value came out at 3.22%.

For the compound `CC(C(=O)Nc1ncccn1)(c1ccccc1)c1ccccc1`, the “hERG current change (%, negative = inhibition) at 1uM” value came out at 8.18%.

On to `CC(C)Cc1cc(CN2CCCC(CO)(Cc3cccc(Cl)c3)C2)[nH]n1` (stereo not drawn), for which the “hERG current change (%, negative = inhibition) at 1uM” value is -14.7%.

For the compound `CN(C)C=O.CN(C)S(=O)(=O)c1cccc(NC(=O)CSc2ncnc3ccccc23)c1`, the “hERG current change (%, negative = inhibition) at 1uM” value was found to be 1.3%.

In the case of `CCCCC1(C)NC(=S)N2N1C(=S)NC2(C)CCCC` (stereo not drawn), the “hERG current change (%, negative = inhibition) at 1uM” value came out at 11.9%.
